The list shows a part of the results.
tested on: PfAP2-HC AP2 domain (GST-tagged); assay: gcPBM binding intensity (ln(normalized median fluorescence intensity)); higher = stronger DNA binding
In short: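 Binding intensity values are the highest Masliner-normalised natural-log median intensity among replicate spots of either probe orientation. The binding step lasted 1 h in 1× PBS with 1% milk, 0.2 mg/ml BSA, 0.5% salmon testes DNA and 0.03% Triton X-100, using GST-tagged P. falciparum DNA-binding domains expressed in E. coli on an Agilent 4 × 180k array of primer-extended double-stranded 36-bp intergenic genomic probes plus negative controls. Alexa488 anti-GST antibody and a 488 nm scan detected bound protein.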

First: TTTTGTTTATGTGTGCATTATATTATATTTTTTATT [TGCATGCA_negctrl_site146]
Second: TATTGACAAAAAAAAAAAAGGTAAAAAAGAAAGAAA [GTGCAC_negctrl_site418]
The “gcPBM binding intensity (ln)” value of the first is higher: 10.1 for the first, 9.43 for the second.

Compared with “TATAAATAAATATACACACACACATATAAATATGTA [CACACA_site6504]”, “TGTAAGAAATTGAGCGCACACATACATCTGTGGGAT [CACACA_site4945]” is lower in “gcPBM binding intensity (ln)” value: 10.4 for the first, 10 for the second.

First: CTACATACAAGAATTAAACACACACTAATTATAAAT [CACACA_site8986]
Second: CCTCAATATTCACATACACACAATATCATCGAAGTA [CACACA_site1676]
The “gcPBM binding intensity (ln)” value of the first is higher: 10.4 for the first, 9.73 for the second.

Compared with “TTCTTTTTTTTTCTGGGTACATATATTCCAATCACT [XGTACX_site4770]”, TTATAAAAGACAAAAGTGCATATATACATATGTATA is lower in “gcPBM binding intensity (ln)” value: 9.79 for the first, 9.72 for the second.

Going from “AATATAATTATATGTGGTACAGAAATAATATAAAAT [XGTACX_site2366]” to “AAATAAATAAATTAACGTACATAATAACATTAATAT [XGTACX_site8567]”, the “gcPBM binding intensity (ln)” value falls from 10.1 to 9.71.

Compared with “ATATATATATATGTATGTACACATATTTTTTAACTT [XGTACX_site431]”, “TATATATATATTATTAGTACTTATTTTTTTTCATAT [XGTACX_site1279]” is lower in “gcPBM binding intensity (ln)” value: 9.81 for the first, 9.72 for the second.

“TGTAAAACCTCCTACACACACCAATTAACTATTCTA [CACACA_site7074]” and “TTATATTATAGACACACACACAAAAAAAAAAAAAAA [CACACA_site3816]” are the same in “gcPBM binding intensity (ln)” value: 10.1 for the first, 10.1 for the second.

Going from “TATAACTTTTATAGGTGTACCCAATATTATATATAG [XGTACX_site7673]” to “CCATCTTTTTTACGATGTACAAGTATAAGGTATACG [XGTACX_site2697]”, the “gcPBM binding intensity (ln)” value falls from 9.54 to 9.43.

Compared with “TTTATATGTTTTGTATTTTTAATAAATATTTTATTA [TGCATGCA_negctrl_site20]”, “TATATATAATAAGAAGGTACACGTAAGTAATAATTT [XGTACX_site934]” is higher in “gcPBM binding intensity (ln)” value: 9.62 for the first, 9.91 for the second.

First: TTGAATTAAAAACATACATGCATATATATATATATA [TGCATGCA_site319]
Second: TTATAAAATGGGCAAACACACACAAAAAAAAGATAT [CACACA_site8476]
The “gcPBM binding intensity (ln)” value of the first is lower: 9.74 for the first, 10.9 for the second.

Going from “AATAAATTACTATGTACACACATAAGAGTATAAATA [CACACA_site6940]” to “AAAAAGTTACATGGTGGTACTCAAATAAAATATTCT [XGTACX_site5993]”, the “gcPBM binding intensity (ln)” value falls from 9.91 to 9.62.

Going from “ATTATCCATGCATTTACACACACACTAAAAAAAATT [CACACA_site7848]” to “ATGTATATATATTTGTGTACATATTTAGGAAATAAA [XGTACX_site2904]”, the “gcPBM binding intensity (ln)” value falls from 10.1 to 9.78.

Compared with “AATTAAATTTATATGAATGTCAATTATATTGTTATA [XGTACX_negctrl_site261]”, “TTTATATGTGAAAAAAGTACAAGGAAAAAATTAAAC [XGTACX_site7269]” is higher in “gcPBM binding intensity (ln)” value: 9.52 for the first, 9.72 for the second.

Going from “TATTATGTTATATATTGTACATGTTTATTGAAACAA [XGTACX_site5605]” to “TTTTTTTTAGTATGAACACACATATATATTATAAAA [CACACA_site2935]”, the “gcPBM binding intensity (ln)” value rises from 9.31 to 9.43.

First: TATTAACAAAATATAGCACACATAAATATATATTTA [CACACA_site8005]
Second: TTTTTTTTTTTTTGATGTACATAAATTAAGAATTAT [XGTACX_site7789]
The “gcPBM binding intensity (ln)” value of the first is higher: 9.73 for the first, 9.46 for the second.

First: AATATATCTTTTTACGGCAACCATATTTTTCCCATT [CACACA_negctrl_site963]
Second: TGTCATATTATAAATTGTACAAATAGTATAATTATT [XGTACX_site581]
The “gcPBM binding intensity (ln)” value of the first is higher: 9.8 for the first, 9.54 for the second.

Compared with “ATTTTATCTTTAAACTGTACGTATTAATATGTAGAA [XGTACX_site3077]”, “ATAAAAATATTATAAGCACACATATATATATATATA [CACACA_site8781]” is higher in “gcPBM binding intensity (ln)” value: 9.52 for the first, 9.61 for the second.

First: AGTATACATATATATACACACATATATATATATATA [CACACA_site300]
Second: TGTGTATTTATAAATACACACCAAATGTTAATATAT [CACACA_site6904]
The “gcPBM binding intensity (ln)” value of the first is higher: 9.8 for the first, 9.68 for the second.

Compared with “GTAAAATGATATAAATGTACATAATATATATATGTC [XGTACX_site4049]”, “AATTTTTTTTTTAGACGTACAAGAAAAAACAAAAAA [XGTACX_site4990]” is lower in “gcPBM binding intensity (ln)” value: 9.83 for the first, 9.49 for the second.

First: AACTATAAAAATTTTACACACTGTTTTTAAATAATG [CACACA_site5928]
Second: TATATGAAGTACACAATACACACTAATTATATATAA [CACACA_site2608]
The “gcPBM binding intensity (ln)” value of the first is lower: 9.75 for the first, 10.1 for the second.

First: TTATGCCTTTAATATACACACTAATATTTTTTTGGC [CACACA_site5171]
Second: TATGAAATTATAATTACACACAGGAAAATAAAATGT [CACACA_site1517]
The “gcPBM binding intensity (ln)” value of the first is lower: 9.63 for the first, 9.89 for the second.

First: ATATAATAATAAGGCACACAAATTAAAATATAAAAA [CACACA_site3710]
Second: TTATGTTCTTTAAAACCACACACCCCCCAACCCCCC [CACACA_site8742]
The “gcPBM binding intensity (ln)” value of the first is higher: 9.97 for the first, 9.67 for the second.

First: TATATATGCATATACATACACACATAACACATACGT [CACACA_site3833]
Second: AATGTTTTATTTTGAAGTACATTTAAGAATTTTTTA [XGTACX_site7814]
The “gcPBM binding intensity (ln)” value of the first is higher: 10.1 for the first, 9.34 for the second.

First: ATAAAAATTGATTATACACACGCGCCCAGACAACAA [CACACA_site5870]
Second: ATATAGATGCATAATACACACATCAGATAATTAACC [CACACA_site6871]
The “gcPBM binding intensity (ln)” value of the first is higher: 10.2 for the first, 9.96 for the second.

Going from “ACAAGGTTTACGGGTAGTACAAATTTTTGAACATCT [XGTACX_site4739]” to “TTTTTTTTTTTTTTTTGTACTCATATCTACTATCAT [XGTACX_site274]”, the “gcPBM binding intensity (ln)” value falls from 9.5 to 9.27.

Compared with “AGCCAAACCTTAAATTTAGCAATAAGTTTACAGGTC [CACACA_negctrl_site360]”, “ATTAAAAGTTTATACAAATAAAAAACAAAACAAAAA [CACACA_negctrl_site1030]” is higher in “gcPBM binding intensity (ln)” value: 9.5 for the first, 9.8 for the second.

Compared with “CATTATGTCGTAAATACACACATACATATACATACA [CACACA_site8383]”, TTTTGACCATATCTGTTGCACTTTTGTGCTATTCGA is lower in “gcPBM binding intensity (ln)” value: 9.87 for the first, 9.62 for the second.

Compared with “AAGGATCACAGACAAACACACATATATATATATATA [CACACA_site4469]”, “AAATAATTTGTTGACACACACACACCCATACAGATA [CACACA_site5291]” is higher in “gcPBM binding intensity (ln)” value: 9.86 for the first, 10.4 for the second.

Going from “TAAATTTTTTCCTCCTGTACTTATTATATTTTTTTG [XGTACX_site1572]” to “ATTAATTCGTTTTGTACACACATAATGAGTAATTTA [CACACA_site7118]”, the “gcPBM binding intensity (ln)” value rises from 9.73 to 9.74.

Going from “ATATAATATTTATATGCACACTTTTCTATATATAAG [CACACA_site6100]” to “TAAAATATTATTTATTTACACACCAATCTTCTTTTC [CACACA_site9320]”, the “gcPBM binding intensity (ln)” value rises from 9.66 to 9.71.

Going from “TCGTATTTAAAATGTAGTACATAATTTGAAAAATAA [XGTACX_site5832]” to “TAATGGTTATCACTAACATGCAGTAATATTATATAG [TGCATGCA_site176]”, the “gcPBM binding intensity (ln)” value rises from 9.54 to 9.58.

Going from “TTTTTTCTTTTTTTTTGTACATATAATATTTATGTT [XGTACX_site302]” to “AAAAGAAAAAAAAAAAAAAAAAAAATTAAAATATAA [CACACA_negctrl_site17]”, the “gcPBM binding intensity (ln)” value falls from 9.62 to 9.17.

Compared with “ATATATATATGTATATGTACATATATATGGTAACTC [XGTACX_site681]”, “AAAAAAAAAAAACACACACACAAATACAAATGGTAA [CACACA_site1720]” is higher in “gcPBM binding intensity (ln)” value: 9.9 for the first, 10.9 for the second.

Compared with “AAGTTATTGATATATACACACAAATATAAATAATAT [CACACA_site6695]”, “AATACATATCAAAGCTGTACAAAGTAAATTTTACTT [XGTACX_site3525]” is lower in “gcPBM binding intensity (ln)” value: 9.89 for the first, 9.77 for the second.

First: TTCAATAGGTATAATTGTACTTAATAATATATTGTT [XGTACX_site8363]
Second: CTTAGGTTAAAAGTGTGTACATAAAAACATATATAA [XGTACX_site2213]
The “gcPBM binding intensity (ln)” value of the first is lower: 9.58 for the first, 9.8 for the second.

First: TACTATTATAAATATGTGCACTTCAATAATATACTA
Second: ATAAGAAAAAGACACACACACAAAAAAAAAAAAAAA [CACACA_site2828]
The “gcPBM binding intensity (ln)” value of the first is lower: 9.62 for the first, 10.2 for the second.

First: TAAATAAATTATTTTCGTACTTATTTATTTTAATTA [XGTACX_site283]
Second: TTAAAGTAGAGAAAATGTACATTTTATTAACACAAT [XGTACX_site6369]
The “gcPBM binding intensity (ln)” value of the first is lower: 9.56 for the first, 9.83 for the second.

First: AAATAAAAAACAGTGGCACACATTATGTATCCACCT [CACACA_site3756]
Second: AAAAAAAAAATATACACACACATATAAATATAAATA [CACACA_site7574]
The “gcPBM binding intensity (ln)” value of the first is lower: 9.79 for the first, 10.2 for the second.

Going from “ATACATTCAATGAAATGTACGTTTATTTACAGAAGA [XGTACX_site2999]” to “TACAGATACAGATACACACACACACCGAAATAAATA [CACACA_site4865]”, the “gcPBM binding intensity (ln)” value rises from 9.6 to 11.

Compared with “AAAATAAAAAGAAAAAGAAAAAAGGGGGGGTAGGGG [CACACA_negctrl_site1048]”, “TAAATTCCTACATACGCATGTACATTAAAATTTTAA [TGCATGCA_site215]” is lower in “gcPBM binding intensity (ln)” value: 10.1 for the first, 9.67 for the second.

First: CTTTAAGTTATATGAAGTACAATTTAAAAAAATGAA [XGTACX_site358]
Second: ACATATAATATATAATGTACAAAATTGTTAACAATA [XGTACX_site3798]
The “gcPBM binding intensity (ln)” value of the first is lower: 9.48 for the first, 9.75 for the second.

First: GAAAGGATATATATATATATATATATAATACATTTC [GTGCAC_negctrl_site677]
Second: TATATATACATACATACACACATATATATATATATT [CACACA_site4110]
The “gcPBM binding intensity (ln)” value of the first is lower: 9.63 for the first, 9.94 for the second.

Compared with “AATTAAAAAAAATACACACACACATACACATATATA [CACACA_site3298]”, “CGTATTTATATAATTACACACCATATTATAATTATT [CACACA_site3760]” is lower in “gcPBM binding intensity (ln)” value: 10.9 for the first, 9.75 for the second.

Going from “CCAAAAAAAAAAAAAAGTACATAAAAACAAGAGAAT [XGTACX_site3037]” to “AAGAGAAAAATATATACACACACATAAATATATACA [CACACA_site8573]”, the “gcPBM binding intensity (ln)” value rises from 9.68 to 10.4.

With “AAGGGGTAAAGAAAAACACACAAAAAATAAAAATAT [CACACA_site361]” the “gcPBM binding intensity (ln)” value was 9.76.

From the supplement of paper PMC11417369
